Measurements: the supplement of paper PMC4723716
± gives the uncertainty stated by the source. The full ranking holds about 9,900 compounds; the median of “viability index relative to DMSO control” is about 1, and the lowest 2% start at about 0.85. This is one part of the list.

These molecules were tested on Plasmodium falciparum NF54 stage V gametocytes (assay: viability index relative to DMSO control (fraction); higher = less gametocyte killing). Settings: 2.5 µM, library set: Broad Institute DOS, incubation time: 72 h.
How it was run: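 Stage V gametocytes of P. falciparum NF54 were held in serum-free screening medium at 0.75% gametocytemia and 1.25% hematocrit, 10 µl per well of a 1,536-well plate, and exposed to compound at 2.5 µM for 72 hr at 37°C under low oxygen. A 3 µl mix of 2.5 µM MitoTracker Red CMXRos with 0.13% saponin was then added for one to two hours, after which one field per well was imaged and red particles of 20–70 µm2 were counted. The viability index equals this count divided by the plate mean from wells given solvent alone.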
Molecule `C/C=C/c1ccc2n(c1=O)C[C@H]1[C@H](CO)[C@@H](C(=O)N3CCOCC3)N(Cc3ccccc3)[C@@H]21.C/C=C\c1ccc2n(c1=O)C[C@H]1[C@H](CO)[C@@H](C(=O)N3CCOCC3)N(Cc3ccccc3)[C@@H]21` has a viability index of 1.04 ± 0.072. With `CCS(=O)(=O)N1C[C@@]2(C1)CN(Cc1ccc3OCOc3c1)[C@@H](CO)c1[nH]c3cc(OC)ccc3c21` the viability index was 0.971 ± 0.11. Work on `CC(C)CC#Cc1ccc([C@@H]2[C@@H](CO)N3CCCCN(C(=O)Nc4ccccc4)C[C@H]23)cc1` yielded a viability index of 0.844 ± 0.032. `Cc1ccc(S(=O)(=O)N(C)C[C@@H]2Oc3c(NS(C)(=O)=O)cccc3C(=O)N([C@H](C)CO)C[C@@H]2C)cc1` gave a viability index of 0.939 ± 0.13. Molecule `CN1C(=O)c2cc(NS(=O)(=O)c3ccccc3F)ccc2OC[C@H]2O[C@H](CC(=O)NC3Cc4ccccc4C3)CC[C@@H]21` has a viability index of 0.888 ± 0.013. `CNC[C@@H]1OCCCC[C@H](C)Oc2ccc(NC(=O)Nc3ccc(OC)cc3)cc2C(=O)N([C@@H](C)CO)C[C@H]1C` showed a viability index of 1.12 ± 0.033. `CC(=O)N1[C@@H](CO)[C@@H]2c3ccccc3N(C(=O)c3ccc(F)cc3)C[C@@H]21` gave a viability index of 0.965 ± 0.13. `Cn1cnc(S(=O)(=O)N[C@@H]2CC[C@H](CC(=O)NCC3CCCCC3)O[C@H]2CO)c1` was tested, and the viability index was 1.04 ± 0.054. `CO[C@@H]1CN(C)C(=O)c2cc(NS(=O)(=O)c3ccc(C)cc3)ccc2OC[C@@H](C)N(Cc2ccccn2)C[C@H]1C` was tested, and the viability index was 1.1 ± 0.092. `O=C(C[C@H]1C=C[C@@H](NS(=O)(=O)c2ccc(F)cc2)[C@@H](CO)O1)N1CCc2ccccc2C1` was tested, and the viability index was 0.974 ± 0.075. With `C[C@@H]1CN([C@@H](C)CO)C(=O)c2ccccc2-c2ccccc2CO[C@@H]1CN(C)C(=O)[C@@H]1CCCN1C` the viability index was 0.936 ± 0.093. Work on `CCNC(=O)[C@H]1[C@H](CO)[C@H]2Cn3c(ccc(/C=C/c4ccccc4)c3=O)[C@@H]1N2C(=O)c1ccncc1` yielded a viability index of 0.98739 ± 0.00081. `COc1ccccc1S(=O)(=O)N(C)C[C@H]1OCc2ccccc2-c2ccccc2C(=O)N([C@@H](C)CO)C[C@@H]1C` gave a viability index of 0.963 ± 0.048. Work on `Cc1noc(C)c1NC(=O)N(C)C[C@H]1Oc2cc(C#CCN(C)C)ccc2S(=O)(=O)N([C@@H](C)CO)C[C@@H]1C` yielded a viability index of 1.015 ± 0.007. In the case of `C/C=C/c1ccc([C@H]2[C@@H](CO)N(c3nc(CC)cs3)[C@H]2C#N)cc1`, the viability index is reported as 1.09 ± 0.035. `CCCC(=O)N1CC[C@@]2(CC1)CN([C@@H](CO)c1c2c2ccc(OC)cc2n1C)C(C)=O` gave a viability index of 1.03 ± 0.076. Work on `O=C(NCC[C@@H]1CC[C@@H](NC(=O)c2ccncc2)[C@@H](CO)O1)Nc1ccc(Cl)cc1` yielded a viability index of 1.03 ± 0.098. In the case of `O=C(O)C[C@@H]1CC[C@H]2[C@@H](COC[C@H](O)CN2S(=O)(=O)c2ccc(Oc3ccccc3)cc2)O1`, the viability index is reported as 1.067 ± 0.0063. `COc1ccc(-c2ccc([C@@H]3[C@@H]4CN(C(=O)c5cnccn5)C[C@H]3N4)cc2)cc1` showed a viability index of 0.958 ± 0.052. With `C[C@H]1CN([C@@H](C)CO)C(=O)CCCn2nncc2CO[C@@H]1CN(C)Cc1cccc(C(F)(F)F)c1` the viability index was 1.012 ± 0.0049. Work on `COc1ccccc1-c1ccc2c(c1)O[C@@H](CN(C)CC1CCOCC1)[C@@H](C)CN([C@H](C)CO)S2(=O)=O` yielded a viability index of 1.08 ± 0.046. For `O=C(NC1CCCC1)N1[C@@H]2CNC[C@H]1[C@@H]2c1ccc(-c2cccnc2)cc1`, the viability index was 0.973 ± 0.07. `N#C[C@@H]1[C@H](c2ccccc2C2=CCCCC2)[C@H](CO)N1C(=O)CN1CCOCC1` showed a viability index of 1.17 ± 0.13. `CCN1[C@@H]2Cn3c(ccc(-c4ccncc4)c3=O)[C@H]1[C@@H](C(=O)NCCc1cn(C)cn1)[C@@H]2CO` was tested, and the viability index was 0.959 ± 0.073. For `O=C(C[C@@H]1CC[C@H]2NC[C@@H](O)COC[C@@H]2O1)NCCN1CCCCC1`, the viability index was 1.02 ± 0.059. `COc1ccc(NC(=O)N(C)C[C@H]2OCCCC[C@H](C)Oc3ccc(NC(=O)c4ccncc4)cc3C(=O)N([C@@H](C)CO)C[C@@H]2C)cc1` was tested, and the viability index was 1.09 ± 0.078. Molecule `C/C=C/c1ccc([C@H]2[C@@H](CO)N3C(=O)CN(C(=O)c4ccncc4)C[C@@H]23)cc1` has a viability index of 1.03 ± 0.092. With `O=C(C[C@H]1CC[C@@H](NC(=O)Nc2ccc(C(F)(F)F)cc2)[C@@H](CO)O1)NCc1cccc(F)c1` the viability index was 0.908 ± 0.057. `COCC(=O)N1[C@@H](CO)[C@@H]2c3ccccc3N(C(=O)c3cccnc3)C[C@@H]21` showed a viability index of 0.998 ± 0.087. For `COc1ccc2c3c([nH]c2c1)[C@H](CO)N(C[C@]31CCN(CC1)C(=O)c1ccccc1F)C(=O)Nc1ccc(F)cc1`, the viability index was 0.961 ± 0.076. `O=C(C[C@H]1CC[C@@H](NC(=O)CN2CCOCC2)[C@@H](CO)O1)NC1CCC1` gave a viability index of 1.089 ± 0.0083. Molecule `OC[C@@H]1[C@H](c2ccc(C#Cc3ccccc3F)cc2)[C@@H]2CN(CC3CCOCC3)CCCCN12` has a viability index of 1.029 ± 0.0035. `CN1C[C@H]2[C@@H](c3ccccc31)[C@@H](CO)N2C(=O)C1CCOCC1` gave a viability index of 0.97 ± 0.087. `COc1ccccc1NC(=O)N1CC(=O)N2[C@H](C1)[C@H](c1ccc(-c3cccc(C)c3)cc1)[C@@H]2CO` showed a viability index of 1.04 ± 0.0015. For `CN1c2ccc(Br)cc2[C@H]2[C@H](CCN2C(=O)C2CCC2)[C@H]1CO`, the viability index was 1.12 ± 0.064. For `O=C(C[C@@H]1CC[C@@H]2[C@H](COC[C@H](O)CN2CCC(F)(F)F)O1)NCC1CC1`, the viability index was 1.08 ± 0.02. Molecule `C[C@@H]1CN([C@H](C)CO)S(=O)(=O)c2ccc(-c3ccncc3)cc2O[C@H]1CN(C)S(C)(=O)=O` has a viability index of 0.899 ± 0.17. Molecule `C/C=C/c1ccc([C@H]2[C@@H]3CN(C(=O)Nc4ccccc4F)C[C@H]2N3)cc1` has a viability index of 1.06 ± 0.034. With `CO[C@@H]1CN(C)C(=O)c2ccc(NC(=O)c3cccc(F)c3)cc2OC[C@H](C)NC[C@H]1C` the viability index was 1.14 ± 0.027. `O=C(C[C@H]1C[C@@H]2c3cc(NC(=O)Nc4ccccc4)ccc3O[C@@H]2[C@@H](CO)O1)NCc1ccccc1` gave a viability index of 1.019 ± 0.0055. `O=C(C[C@@H]1CC[C@H](NC(=O)c2ccc(F)cc2)[C@@H](CO)O1)NCCc1ccccc1` was tested, and the viability index was 1.078 ± 0.0076. With `CN(C)C(=O)c1cc2c(c(-c3cccc(C4=CCCCC4)c3)n1)[C@@H](CCO)N(S(C)(=O)=O)C2` the viability index was 1.06 ± 0.065. `O=C(C[C@@H]1C=C[C@H](NC(=O)c2ccncc2)[C@H](CO)O1)NCC1CC1` was tested, and the viability index was 1.125 ± 0.0058. In the case of `CCCNC(=O)Nc1ccc2c(c1)C(=O)N(C)C[C@H](OC)[C@H](C)CN(C)[C@H](C)CO2`, the viability index is reported as 1.12 ± 0.072. `CCC(=O)N1[C@H](C(=O)N(C)C)[C@@H](CO)[C@@H]2Cn3c(ccc(-c4ccc(F)cc4)c3=O)[C@@H]21` showed a viability index of 0.996 ± 0.046. `C[C@@H]1CN([C@@H](C)CO)C(=O)c2cc(-c3cccc(C#N)c3)cnc2O[C@@H]1CN(C)C(=O)C1CCOCC1` was tested, and the viability index was 1.06 ± 0.035.
